# Data: PubChem BioAssay AID1461 (National Center for Advancing Translational Sciences (NCATS), 2008)
# About 2,300 (1%) of roughly 220,000 compounds were called active. This list was built around the results that the source calls inconclusive (neither active nor inactive); the mix of calls is not that of the screen. Calls come from the whole dose curve; as a rule, active = well fitted inhibition curve with a large enough effect; inconclusive = small, poorly fitted or top-dose-only effect, or effect the other way; inactive = no such curve, though single readings can be large or run the other way. Potencies of inconclusive entries are left out as doubtful fits.
# Target: Neuropeptide S receptor (Homo sapiens) (UniProt Q6W5P4)
# Assay: qHTS Assay for Antagonists of the Neuropeptide S Receptor: cAMP Signal Transduction; note: nearly all actives have a fitted effect of over 50% in size
# Conditions: CHO-NPSR cells, cAMP TR-FRET, antagonist mode; activity change, negative = inhibition: at 38.3 µM (top of the series) unless noted
# % is set by controls: 0 for no effect and ±100 for the full control effect; potency is the fitted concentration of half-maximal effect; tags give direction and shape of the fitted curve.
# Chain of UniProt Q6W5P4 (Q6W5P4 whole entry, looked up): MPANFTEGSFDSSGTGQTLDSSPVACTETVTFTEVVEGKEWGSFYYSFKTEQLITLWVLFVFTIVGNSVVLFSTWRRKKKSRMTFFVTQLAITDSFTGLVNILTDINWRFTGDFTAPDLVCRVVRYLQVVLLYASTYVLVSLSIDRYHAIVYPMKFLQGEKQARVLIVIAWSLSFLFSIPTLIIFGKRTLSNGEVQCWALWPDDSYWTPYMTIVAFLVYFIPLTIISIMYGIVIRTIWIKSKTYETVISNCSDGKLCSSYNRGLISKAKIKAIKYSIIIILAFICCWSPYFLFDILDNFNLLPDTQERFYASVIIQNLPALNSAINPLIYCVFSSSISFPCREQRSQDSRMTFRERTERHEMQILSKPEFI
Compound,"activity change, negative = inhibition",Potency
Cc1cccc(NC(=O)/C(C#N)=C\c2ccc(C(=O)O)cc2)c1,inactive: -17.2%,
Cc1nc2c(C(=O)NCc3ccco3)cnn2c(C)c1Cc1ccc(F)cc1Cl,,"inconclusive [inhibitor, single point]"
CCOC(=O)C1=C(O)C(=O)N(c2ccc(S(N)(=O)=O)cc2)C1c1ccc([N+](=O)[O-])cc1 (centres undefined),inactive: 1.94%,
O=C(Oc1ccc(Br)cc1C(=S)N1CCCC1)c1ccccc1F,inactive: -8.52%,
CCOC(=O)C1(C)C=C(Nc2cccc(OC)c2)C(=O)N1c1ccccc1 (centres undefined),,"inconclusive [activator, partial curve]"
O=c1oc2cc(OCc3ccc(F)cc3F)ccc2cc1-c1ccc2ccccc2n1,,"inconclusive [inhibitor, full curve, poor fit]"
CC(C)N1CSC(=S)N(Cc2ccccc2)C1,,"inconclusive [inhibitor, full curve, poor fit]"
COc1ccc(-c2cc(C(F)(F)F)nc(S(=O)(=O)CCC(=O)N3CCOCC3)n2)cc1,,"inconclusive [inhibitor, single point]"
Cc1cc(N2CCN(C(=O)c3ccco3)CC2)n2ncc(-c3ccccc3)c2n1,,"inconclusive [inhibitor, partial curve, poor fit]"
CC(C)c1ccc(NC(=O)C(c2ccc3c(c2)OCO3)N2CCC3(CC2)OCCO3)cc1 (centres undefined),,"inconclusive [inhibitor, full curve, poor fit]"
CCOc1cccc(-c2nnc3sc(C4CCCCC4)nn23)c1,,"inconclusive [inhibitor, partial curve]"
Cc1cc(C)cc(OCC(=O)Nc2ccccc2C(=O)NCc2ccco2)c1,inactive: -5.1% [at 46.1 µM],
C=CCn1c(SCC(=O)NCCOC)nc2scc(-c3ccco3)c2c1=O,,"inconclusive [inhibitor, single point]"
Cc1ccc(-c2nnc(N3CCN(C(=O)c4ccco4)CC3)c3ccccc23)cc1,,"inconclusive [inhibitor, single point]"
CCc1ccc(NC(=O)c2c(Cl)nc(C)c(Cl)c2C)cc1,inactive: -23.1%,
O=C(Nc1cc(Cl)cc(Cl)c1)N1CCCC1,,"inconclusive [activator, single point]"
Cn1cccc1Cc1nnc(SCC(=O)N2CCCC2)n1CCc1ccccc1,,"inconclusive [inhibitor, full curve, poor fit]"
Cc1cccc(NC(=S)NNC(=S)NCc2ccccc2)c1,inactive: 4.19% [at 46.1 µM],
COc1ccc2nc(Nc3nc(C)c(C(C)=O)s3)sc2c1,,"inconclusive [inhibitor, partial curve]"
CC(=O)Nc1ccc2c(c1)OCCO2,,"inconclusive [inhibitor, single point]"
CCCC(=O)N1CCN(c2ccc(NC(=O)c3ccc(OCC)c([N+](=O)[O-])c3)cc2)CC1,inactive: -3.74% [at 46.1 µM],
CS(=O)(=O)c1nc(-c2ccco2)cc(C(F)(F)F)n1,,active: 10 µM
CC(C)Cc1nc2oc3c(=O)[nH]cnc3c2c2c1CCC2,,"inconclusive [inhibitor, partial curve, poor fit]"
COc1cccc(/C=N/n2c(-c3cc(C)[nH]n3)n[nH]c2=S)c1OC,,"inconclusive [inhibitor, single point]"
CCn1c(Cl)c(C=O)s/c1=N\S(=O)(=O)c1ccccc1,,active: 10 µM

Compound,"activity change, negative = inhibition",Potency
Oc1c(C(Nc2cccc(C(F)(F)F)c2)c2cccnc2)ccc2cccnc12 (centres undefined),inactive: 3.69%,
Cc1c(/C(O)=C2\C(=O)C(=O)N(CCN(C)C)C2c2cccnc2)cnn1-c1ccccc1 (centres undefined),,"inconclusive [inhibitor, partial curve, poor fit]"
COc1c(CC=C(C)C)cc(C2CC(=O)c3c(O)cc(O)cc3O2)cc1CC=C(C)C (centres undefined),,"inconclusive [inhibitor, single point]"
CCc1ccc(-c2nc(CN3CCCC(C(=O)NCCc4ccc(OC)c(OC)c4)C3)c(C)o2)cc1 (centres undefined),,"inconclusive [inhibitor, single point]"
c1ccc(CN=C2NN=C(c3ccccc3)CS2)cc1,inactive: -49.2%,
c1ccc(Cn2nnnc2C(c2ccncc2)N2CCOCC2)cc1 (centres undefined),inactive: -6.16% [at 46.1 µM],
Cn1nc(C(F)(F)F)c(C#N)c1N1CCN(c2ccccn2)CC1,inactive: -4.83%,
COc1ccc(Oc2coc3c(CN4CCOCC4)c(O)ccc3c2=O)cc1,inactive: 10.2% [at 46.1 µM],
CN(C)CCNc1oc(/C=C/c2ccccc2)nc1C#N,,active: 10 µM
O=C(NCCCN1CCOCC1)c1ccc(-n2nc(C(F)(F)F)cc2-c2cccs2)cc1,,"inconclusive [activator, partial curve]"
COC(=O)C1=C(C)NC(C)=C(C(=O)OC)C1c1ccc(-c2cccc(Cl)c2Cl)o1,,"inconclusive [inhibitor, single point]"
CCOc1cc(C=O)ccc1OCCSc1ccc(C)cc1,,"inconclusive [inhibitor, partial curve, poor fit]"
Cc1cccc(N(CC(=O)NC2CCCC2)C(=O)CS(=O)CC(=O)Nc2ccc3c(c2)OCO3)c1 (centres undefined),,"inconclusive [inhibitor, single point]"
Cc1ccc(-c2nc(-c3ccccn3)no2)cc1Cl,inactive: -8.88% [at 46.1 µM],
Cc1ccc(NC(=O)C(OC(=O)c2ccc(NC(N)=O)cc2)c2ccccc2)cc1Cl (centres undefined),,"inconclusive [inhibitor, single point]"
COc1ccc(/C=N/n2cncn2)cc1Cn1cc([N+](=O)[O-])cn1,,"inconclusive [activator, full curve, poor fit]"
COc1ccc(S(=O)(=O)N(CC(=O)NC2CC2)c2ccc(C)cc2)cc1,inactive: -10.6%,
COc1ccc(-n2nnnc2SCC(=O)c2ccc3c(c2)OCCO3)cc1,,"inconclusive [inhibitor, single point]"
Cc1ccc(NC2=Nc3ccccc3CC2)cc1,inactive: -10.6% [at 46.1 µM],
Cn1ncc2c(O/N=C(\N)c3ccc(C(C)(C)C)cc3)ncnc21,,"inconclusive [inhibitor, single point]"
O=C1c2ccccc2C(=O)N1CC#CCN1CCN(C(c2ccccc2)c2ccccc2)CC1,,"inconclusive [inhibitor, single point]"
COc1ccc(C(=O)NC(=S)Nc2ccc(N3CCCC3)cc2)cc1,inactive: -1.63%,
COc1ccc(CC(=O)NNC(=O)c2cccs2)cc1,inactive: 7.71%,
CC1=CC(=O)N(c2ccn(C)n2)C1=O,inactive: 5.54%,
Oc1ccc(C=Nc2ccc(N3CCOCC3)cc2)c(O)c1,inactive: -17.9% [at 46.1 µM],

Compound,"activity change, negative = inhibition",Potency
O=C(Nc1nccs1)c1cn(-c2ccccc2)nc1-c1ccccc1,,"inconclusive [inhibitor, single point]"
CCOC(=O)c1cnc(-n2nc(C)cc2C)nc1NCCc1ccccc1,,active: 12.6 µM
CC(C)(C)NC(=S)N/N=C\c1ccc(-c2ccc([N+](=O)[O-])cc2)o1,,"inconclusive [inhibitor, full curve, poor fit]"
S=C(NCCC(c1ccccc1)c1ccccc1)Nc1ccc(Cl)cc1,inactive: -30% [at 46.1 µM],
CCCNC(=S)N1CCC(NC(=O)C23CC4CC(CC(C4)C2)C3)CC1,,"inconclusive [inhibitor, single point]"
CC/C(O)=C(/C#N)c1nnc2n1CCCCC2,inactive: -3.66% [at 46.1 µM],
Cc1cc2n(n1)SC(Nc1ccc(F)c(Cl)c1)N2 (centres undefined),inactive: -11.9% [at 46.1 µM],
COc1ccc(C(=O)NNC2=Nc3cccc4cccc2c34)cc1,inactive: -20.6%,
COc1ccc(CNC(=O)c2c(N)n(CCCN3CCOCC3)c3nc4ccccc4nc23)cc1,,"inconclusive [inhibitor, single point]"
COc1cccc(-n2c(COc3ccc(C)cc3)nnc2SCC(N)=O)c1,,"inconclusive [inhibitor, single point]"
O=C(O)c1ccccc1N(Cc1ccccc1)C(=O)CO/N=C/c1ccccc1,inactive: 7.57%,
CCc1cc(-c2nc(N)ncc2-c2ccc(Br)cc2)c(O)cc1OC,,"inconclusive [activator, single point]"
O=C(/C=C/c1ccco1)Nc1cc(Cl)ccc1C(=O)O,inactive: -37.7%,
Cc1ccc(NC(=S)NC(NC(=O)c2ccco2)C(Cl)(Cl)Cl)cc1 (centres undefined),inactive: -17.5% [at 46.1 µM],
CCOc1cc(S(=O)(=O)NCCc2cccc(C)c2)c(OCC)cc1-n1cnnn1,,"inconclusive [inhibitor, partial curve, poor fit]"
Cc1cccc(N2CCN(C(=O)C3CCCCC3)CC2)c1C,,"inconclusive [inhibitor, single point]"
CCN(CC)C(=O)c1sc(NC(=O)c2ccc(Br)o2)c(C(=O)OC)c1C,,"inconclusive [inhibitor, partial curve]"
Cc1cccc(-n2c(C)cc(C=C3C(=O)c4ccccc4C3=O)c2C)c1,,"inconclusive [inhibitor, full curve, poor fit]"
CCC(C(=O)Nc1ccsc1C(=O)OC)c1ccccc1 (centres undefined),inactive: -51.7%,
Cc1ccc(C)c(S(=O)(=O)N2CCN(CC(=O)Nc3cc(C)on3)CC2)c1,inactive: -12.4% [at 46.1 µM],
O=C(Nc1ccc2c(c1)OCO2)C1CCN(c2ccc(S(=O)(=O)N3CCOCC3)cc2)CC1,,"inconclusive [activator, single point]"
Cc1cc(NC(=O)CSc2nc(C(C)C)nc3sc4c(c23)CCCC4)no1,,"inconclusive [inhibitor, single point]"
Cn1c(C(=O)NCc2cccs2)cc2c(=O)n(C)c3ccccc3c21,,"inconclusive [inhibitor, single point]"
Nc1c(S(=O)(=O)c2cccs2)c2nc3ccccc3nc2n1Cc1cccs1,,"inconclusive [inhibitor, partial curve]"
